# Assay results taken from article PMC4336329 (PLoS ONE, 2015).
# The campaign covered roughly 310,000 compounds. About 2,200 (0.71%) showed an effect of 50% or more. The effect is printed as a negative number. Some of the results follow.
# Molecular target: human ether-à-go-go-related gene (hERG) potassium channel (human, UniProt Q12809)
# Assay: primary screen, population patch clamp on CHO cells stably expressing hERG
# Sequence of human ether-à-go-go-related gene (hERG) potassium channel (Q12809 whole entry, looked up): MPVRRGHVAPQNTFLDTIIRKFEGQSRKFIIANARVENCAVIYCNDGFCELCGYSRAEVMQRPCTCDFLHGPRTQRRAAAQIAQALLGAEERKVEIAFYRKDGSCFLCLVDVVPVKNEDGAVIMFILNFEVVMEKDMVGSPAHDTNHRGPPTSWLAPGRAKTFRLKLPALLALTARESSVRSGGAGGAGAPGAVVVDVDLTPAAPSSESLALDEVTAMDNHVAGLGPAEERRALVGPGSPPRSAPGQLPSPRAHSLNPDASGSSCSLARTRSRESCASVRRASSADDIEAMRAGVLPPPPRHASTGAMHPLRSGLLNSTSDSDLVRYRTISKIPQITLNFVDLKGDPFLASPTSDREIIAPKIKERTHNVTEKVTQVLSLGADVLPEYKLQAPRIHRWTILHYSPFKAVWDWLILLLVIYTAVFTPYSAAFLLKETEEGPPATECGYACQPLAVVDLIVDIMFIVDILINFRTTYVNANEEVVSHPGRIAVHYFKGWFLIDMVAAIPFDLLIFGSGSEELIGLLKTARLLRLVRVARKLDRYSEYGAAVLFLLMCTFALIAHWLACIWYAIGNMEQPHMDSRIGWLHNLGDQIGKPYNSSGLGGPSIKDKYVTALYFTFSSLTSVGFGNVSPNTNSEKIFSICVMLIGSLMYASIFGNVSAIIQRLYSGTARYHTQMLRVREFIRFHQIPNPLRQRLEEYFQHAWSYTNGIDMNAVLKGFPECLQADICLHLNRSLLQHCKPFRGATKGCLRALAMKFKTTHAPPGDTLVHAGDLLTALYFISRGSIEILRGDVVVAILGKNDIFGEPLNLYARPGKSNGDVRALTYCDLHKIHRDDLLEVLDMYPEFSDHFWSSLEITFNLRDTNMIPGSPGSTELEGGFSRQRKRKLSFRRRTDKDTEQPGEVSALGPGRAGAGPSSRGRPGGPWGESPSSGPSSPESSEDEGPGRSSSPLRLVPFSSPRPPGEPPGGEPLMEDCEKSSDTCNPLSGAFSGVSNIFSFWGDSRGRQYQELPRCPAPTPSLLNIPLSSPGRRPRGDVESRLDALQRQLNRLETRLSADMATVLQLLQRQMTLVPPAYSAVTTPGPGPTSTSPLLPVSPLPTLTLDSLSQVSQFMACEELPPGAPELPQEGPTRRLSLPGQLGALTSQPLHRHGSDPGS
row,Structure (SMILES),"hERG current change (%, negative = inhibition) at 1uM"
1,CCOC(=O)c1c[nH][nH]c1=O,9.83%
2,O=C(O)c1cccc(N2C(=O)c3ccc(C(=O)c4cccc([N+](=O)[O-])c4)cc3C2=O)c1,15.3%
3,c1ccc(C2=Nc3ccccc3NC(c3ccccc3)C2)cc1 (stereo not shown),-3.13%
4,CCCc1nc2oc(C(=O)OCC)c(N)c2c2c1COC(C)(C)C2,-9.15%
5,COC(=O)c1cc2c(=O)c3ccccc3oc2nc1/C=C/N(C)C,9.48%
6,Cc1cc(Cl)ccc1OCC(=O)NCc1ccncc1,8.14%
7,CCCCn1c(N)c(N(CC(C)C)C(=O)c2cnccn2)c(=O)[nH]c1=O,14.8%
8,CC(=O)Nc1ccc(CN2CCCC(CCC(=O)NCc3ccccc3F)C2)cc1 (stereo not shown),7.17%
9,O=C(c1cccnc1)N1CCN(S(=O)(=O)c2ccc(S(=O)(=O)N3CCCC3)cc2)CC1,10.9%
10,O=C(CSCc1ccccc1)Nc1cccc(C(=O)Nc2ccccc2C(=O)O)c1,7.78%
11,CCCOc1ccccc1/C=C1\SC(N)=NC1=O,8.45%
12,Nc1ccc(C(=O)OCC(=O)Nc2ccc3c(c2)OCO3)cc1[N+](=O)[O-],-1.03%
13,CCN(CC)CC(=O)c1ccc(-c2ccccc2)cc1,-3.93%
14,O=C(Nc1nc2c(Cl)c(Cl)ccc2s1)C1CC1,8.24%
15,CCCN(CCC)S(=O)(=O)c1ccc(C(=O)OCCN2C(=O)c3cccc4c(N5CCOCC5)ccc(c34)C2=O)cc1,2.45%
16,O=C(NCCc1ccc(Cl)cc1)Nc1ccc(Cl)cc1,11.8%
17,CCOP(=O)(OCC)C(C#N)=C1SCN(c2ccccc2)CS1,8.13%
18,Cc1ccc2nc(NC(=O)C3CC3C)sc2c1 (stereo not shown),12%
19,COc1ccccc1Cn1nnc2c(=O)[nH]c(C3CCN(C(=O)c4ccc(F)cc4)CC3)nc21,11%
20,COC(=O)c1ccc(Cn2c(CN3CCOCC3)nc3ccccc3c2=O)o1,5.22%
21,C=CCn1c(SCCOc2ccc(OC)cc2)nnc1C(NC(=O)c1ccc(OC)cc1)C(C)C (stereo not shown),-14.2%
22,Cc1ccc(S(=O)(=O)N2CCCN(c3nc4cc(C)ccc4cc3C#N)CC2)cc1,13.9%

row,Structure (SMILES),"hERG current change (%, negative = inhibition) at 1uM"
1,O=C1/C(=N/n2cnnc2)c2ccccc2N1Cc1ccccc1,9.42%
2,O=C(NCc1ccc2c(c1)OCO2)C1(S(=O)(=O)c2ccccc2)CC1,9.27%
3,COCCn1c(SCC(=O)NC(=O)Cc2ccccc2)nc2ccccc2c1=O,1.36%
4,Cn1nc(C(F)(F)F)c(C(=O)Nc2cccc(Cl)c2)c1Cl,2.7%
5,CC1CCN(CC(=O)Nc2ccc(S(=O)(=O)N3C(C)CCCC3C)cc2)CC1 (stereo not shown),7.85%
6,COc1ccc(C(=O)Nc2ccc(S(=O)(=O)N3CCOCC3)cc2)cc1[N+](=O)[O-],17.5%
7,O=C(NCc1ccco1)C1CC2CCC1C2 (stereo not shown),6.07%
8,COc1ccc(O)c(C(=O)c2cnn(C(=O)c3ccc(C)cc3)c2)c1,7.06%
9,COc1ccc(C(=O)NCC(=O)N2CCC(C)CC2)cc1OC,9.11%
10,COCCCNC(=O)/C=C/c1c(Cl)cccc1Cl,15.8%
11,Clc1ccc(CNc2nc(N3CCOCC3)nc(N3CCOCC3)n2)cc1,7.55%
12,COc1ccc(C(=O)C[n+]2cc(-c3ccc(OC)cc3)n3c2CCCC3)cc1.[Br-],11.5%
13,COc1ccccc1N(CC(=O)N1CCN(c2ccccc2)CC1)S(=O)(=O)c1ccc(C)cc1,12.9%
14,CCOC(=O)C1C2c3ccccc3O[C@@]1(C)N=C1SCC(=O)N12 (stereo partly shown),14.6%
15,Cc1ccc(-n2ncc3c2CCCC3NC(=O)CCn2ccnc2C)cc1C (stereo not shown),14.1%
16,N#C/C(=C\c1cccc(Cl)c1)C(=O)c1ccccc1,11.6%
17,CCOC(=O)N1CCN(c2ncnc3scc(-c4ccc(Cl)cc4)c23)CC1,14.2%
18,NS(=O)(=O)c1ccc(CNc2ncnc3sccc23)cc1,14.2%
19,CC(Oc1ccc2c(c1)oc(=O)c1ccccc12)C(=O)NCCN1CCOCC1 (stereo not shown),-6.43%
20,Cn1c(=O)c2c(nc(N/N=C/c3cccs3)n2C)n(C)c1=O,11.6%
21,O=C(CSc1nc2ccccc2[nH]1)N/N=C/c1ccco1,3.19%
22,CC1(C(=O)NC23CC4CC(CC(C4)C2)C3)CC1(Cl)Cl (stereo not shown),2.43%

row,Structure (SMILES),"hERG current change (%, negative = inhibition) at 1uM"
1,COc1cccc2c(N/N=C/c3ccco3)cc(C)nc12,5.01%
2,CCOc1ccccc1C(=O)NCC(=O)NCCCSc1ccccc1,6.67%
3,NNC(=O)c1nc[nH]c1C(=O)Nc1ccccc1,16.8%
4,CCN(c1ccccc1)S(=O)(=O)c1ccc(Cl)c(NC(=O)CN2CCN(C)CC2)c1,-17.4%
5,CCOc1ccccc1NC(=O)CCNC(=O)Cn1ccc2ccccc2c1=O,9.9%
6,COc1ccc(NS(=O)(=O)c2cccc3cccnc23)cc1Cl,10.4%
7,CN(c1cccnc1)c1ncnc2[nH]ncc12,12.4%
8,COc1cccc(OC)c1C(=O)NNC(=O)c1cccnc1,17.4%
9,COc1ccc(OC)c(C(=O)N2CCC(n3nccc3NC(=O)CC(C)C)CC2)c1,12.2%
10,COc1ccc(NC(=O)CCN2CCCC2)c(OC)c1,9.32%
11,Cc1cccc(NC(=O)Cn2c(=O)oc3cc(S(=O)(=O)N4CCCC4)ccc32)n1,9.06%
12,CCCN1C(=O)SC(CC(=O)Nc2ccc(C)cc2)C1=O (stereo not shown),7.62%
13,CN(Cc1cc(=O)n2ccsc2n1)C1CCCCC1,11.3%
14,C=C(C)c1cccc(C(C)(C)NC(=O)Nc2nnc(C(C)C)s2)c1,4.89%
15,COc1cc(OC)cc(C(=O)NN2CCOCC2)c1,7.2%
16,CN(C)C(=O)c1ccc(NC(=O)CN2CCc3cc4c(cc3C2)OCCCO4)cc1,8.03%
17,Cc1ccnc(N2C(=O)c3ccc([N+](=O)[O-])cc3C2=O)c1,12.2%
18,COCCCn1c(-c2ccsc2)nc2c1c(=O)[nH]c(=O)n2Cc1ccccc1,9.23%
19,COCCNC(=O)C(c1ccco1)N(C(=O)Cn1nnc2ccccc21)c1ccc(C)cc1C (stereo not shown),11.2%
20,CC(=O)Oc1ccccc1/C=C1\CCOC1=O,12.3%
21,COCCn1c(SCC(=O)N2CCCc3ccccc32)nc2cccnc21,-3.04%
22,CC(=O)Nc1ccc(OCCOc2ccc(/C=C3/C(=N)N4C=CSC4=NC3=O)cc2)cc1,14.5%

row,Structure (SMILES),"hERG current change (%, negative = inhibition) at 1uM"
1,COc1ccc(OCCSc2nnc(CC(=O)Nc3cccc(Cl)c3Cl)n2C)cc1,12.8%
2,COCCN(C(=O)CSc1nc2ccc(OC)cc2[nH]1)c1c(N)n(Cc2ccccc2)c(=O)[nH]c1=O,5.45%
3,COc1ccc(CN(CC(=O)NC2CCCC2)C(=O)CCC(=O)Nc2cc(C)on2)cc1,3.27%
4,CCCCNC(=O)Nc1ccccc1Br,8.47%
5,Cc1ccc(S(=O)(=O)NCC(=O)N2CCN(c3ccc(F)cc3)CC2)cc1,7.62%
6,Cc1ccccc1CN(c1ccc(C(=O)Nc2ccccc2C(=O)NCc2ccco2)cc1)S(C)(=O)=O,-1.92%
7,O=C(COc1ccccc1)Nc1nnc(-c2ccccc2)o1,-2.99%
8,CC(C)C(=O)NC(c1cccc([N+](=O)[O-])c1)c1ccc2cccnc2c1O (stereo not shown),11.7%
9,Cn1nc(-c2ccc(N3CCCCC3)c(NC(=O)c3ccco3)c2)c2ccccc2c1=O,13%
10,O=C(NC1CCCC1)C(c1ccccn1)N(C(=O)c1csnn1)c1ccccc1Cl (stereo not shown),9.28%
11,Cc1ccc(C)c(N/C(N)=N/c2nc(C)cc(C)n2)c1,-8.3%
12,CCOc1ccc(-n2c(=S)sc3c(=O)[nH]c(SCC(=O)N4CCC(C)CC4)nc32)cc1,16.8%
13,O=C(COC(=O)c1ccc(F)c(S(=O)(=O)N2CCCCC2)c1)NCc1ccc(F)cc1,4.94%
14,O=C(Nc1ccncc1)Nc1ccccn1,9.93%
15,CCN1CCN(C(=O)C2CCN(C(=O)Nc3ccccc3)CC2)CC1,-1.08%
16,COc1ccccc1-c1c(C(F)(F)F)oc2cc(OS(C)(=O)=O)ccc2c1=O,5.3%
17,CCCCC1(C(=O)OCC)NC(c2ccc(O)cc2)C2C(=O)N(c3ccccc3)C(=O)C21 (stereo not shown),2.92%
18,COC(=O)c1c(NC(=O)c2nc3ccccc3s2)sc2c1CCN(C(C)=O)C2,18.9%
19,COc1ccccc1/C=N/NC(=O)c1c(-c2ccccc2)noc1C,14%
20,CS(=O)(=O)c1ccc(C(=O)OCC(=O)NC(=O)C2CCCCC2)cc1[N+](=O)[O-],-6.35%
21,COc1ccc(NC(=O)C2CCN(S(=O)(=O)c3cccc4nonc34)CC2)cc1,14.3%
22,Cc1cc(=O)oc2n[nH]c(-c3ccccc3)c12,5.57%
